Measured values as given in paper PMC8660637.
No constants are given. Whether binding was seen depends on the method and setting. In cells and extracts the contact can be indirect. Some results given as binding are weak or reduced against the parent protein; the word gives no strength.

Protein sequences, listed by entry. Tags and fused reporters are not part of them.
UniProt O94864: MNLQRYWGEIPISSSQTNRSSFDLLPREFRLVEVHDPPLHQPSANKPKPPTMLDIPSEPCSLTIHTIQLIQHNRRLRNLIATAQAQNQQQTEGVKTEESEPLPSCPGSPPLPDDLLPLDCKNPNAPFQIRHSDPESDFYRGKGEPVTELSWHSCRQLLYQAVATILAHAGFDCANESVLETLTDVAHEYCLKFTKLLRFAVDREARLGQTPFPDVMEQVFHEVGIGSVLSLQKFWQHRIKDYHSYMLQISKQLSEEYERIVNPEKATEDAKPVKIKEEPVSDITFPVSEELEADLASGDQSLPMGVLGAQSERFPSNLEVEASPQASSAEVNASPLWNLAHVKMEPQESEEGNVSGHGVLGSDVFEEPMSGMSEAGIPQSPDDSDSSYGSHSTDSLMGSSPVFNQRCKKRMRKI
UniProt P20226: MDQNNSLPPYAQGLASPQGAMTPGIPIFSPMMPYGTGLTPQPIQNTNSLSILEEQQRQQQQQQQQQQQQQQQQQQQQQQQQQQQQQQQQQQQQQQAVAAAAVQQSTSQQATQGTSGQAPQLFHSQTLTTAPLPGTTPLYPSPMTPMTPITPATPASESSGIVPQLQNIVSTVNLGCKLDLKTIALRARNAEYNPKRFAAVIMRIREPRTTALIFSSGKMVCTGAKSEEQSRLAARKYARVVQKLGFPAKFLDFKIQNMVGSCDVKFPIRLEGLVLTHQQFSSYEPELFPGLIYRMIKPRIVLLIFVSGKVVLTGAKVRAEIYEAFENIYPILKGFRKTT
UniProt Q92830: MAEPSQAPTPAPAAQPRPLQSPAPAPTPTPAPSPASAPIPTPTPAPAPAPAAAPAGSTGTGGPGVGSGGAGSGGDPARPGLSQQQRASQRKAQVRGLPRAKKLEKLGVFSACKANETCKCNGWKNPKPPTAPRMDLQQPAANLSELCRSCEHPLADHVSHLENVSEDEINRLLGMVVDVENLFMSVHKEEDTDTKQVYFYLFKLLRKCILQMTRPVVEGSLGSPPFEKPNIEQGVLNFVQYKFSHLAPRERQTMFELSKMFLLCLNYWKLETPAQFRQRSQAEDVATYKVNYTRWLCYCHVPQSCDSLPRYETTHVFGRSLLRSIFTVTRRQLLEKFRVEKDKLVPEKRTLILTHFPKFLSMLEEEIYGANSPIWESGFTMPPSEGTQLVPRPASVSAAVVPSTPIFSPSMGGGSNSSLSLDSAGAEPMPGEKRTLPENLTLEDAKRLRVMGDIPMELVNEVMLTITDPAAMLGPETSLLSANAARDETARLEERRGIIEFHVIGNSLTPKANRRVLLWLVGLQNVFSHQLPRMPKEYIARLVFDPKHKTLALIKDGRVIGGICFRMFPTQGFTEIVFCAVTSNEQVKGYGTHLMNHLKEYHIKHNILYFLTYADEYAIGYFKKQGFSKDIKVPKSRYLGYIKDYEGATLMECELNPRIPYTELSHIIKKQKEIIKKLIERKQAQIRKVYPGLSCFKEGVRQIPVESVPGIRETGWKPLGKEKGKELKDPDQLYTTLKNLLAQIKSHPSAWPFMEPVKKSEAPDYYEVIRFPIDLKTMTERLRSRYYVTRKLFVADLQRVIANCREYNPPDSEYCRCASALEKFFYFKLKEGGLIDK
UniProt Q12962: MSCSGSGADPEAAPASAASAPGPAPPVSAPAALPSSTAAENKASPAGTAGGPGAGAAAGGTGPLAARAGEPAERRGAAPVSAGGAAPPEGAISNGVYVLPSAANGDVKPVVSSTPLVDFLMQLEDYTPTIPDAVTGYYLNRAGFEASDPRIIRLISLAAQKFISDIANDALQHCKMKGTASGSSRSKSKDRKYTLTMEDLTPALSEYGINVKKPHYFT

Each molecule was assayed against SUPT7L-Halo-(FLAG)3 (human (endogenous in HeLa)) (UniProt O94864) (assay: co-IP; SUPT7L-Halo-(FLAG)3 captured on FLAG M2 resin from the dialyzed phosphocellulose P0.5 M fraction of HeLa nuclear extract (150 mM KCl, 0.1% IGEPAL CA-630, 12 h, 4 °C), washes up to 0.6 M NaCl, 3xFLAG peptide elution; western blot of lysate and elution).

Row | Molecule | binding
1 | TBP (TATA-box binding protein), endogenous in HeLa (from UniProt P20226 1-339) | no binding
2 | USP22 (protein, UniProt Q9UPT9 1-525) MVSRPEPEGEAMDAELAVAPPGCSHLGSFKVDNWKQNLRAIYQCFVWSGTAEARKRKAKSCICHVCGVHLNRLHSCLYCVFFGCFTKKHIHEHAKAKRHNLAIDLMYGGIYCFLCQDYIYDKDMEIIAKEEQRKAWKMQGVGEKFSTWEPTKRELELLKHNPKRRKITSNCTIGLRGLINLGNTCFMNCIVQALTHTPLLRDFFLSDRHRCEMQSPSSCLVCEMSSLFQEFYSGHRSPHIPYKLLHLVWTHARHLAGYEQQDAHEFLIAALDVLHRHCKGDDNGKKANNPNHCNCIIDQIFTGGLQSDVTCQVCHGVSTTIDPFWDISLDLPGSSTPFWPLSPGSEGNVVNGESHVSGTTTLTDCLRRFTRPEHLGSSAKIKCSGCHSYQESTKQLTMKKLPIVACFHLKRFEHSAKLRRKITTYVSFPLELDMTPFMASSKESRMNGQYQQPTDSLNNDNKYSLFAVVNHQGTLESGHYTSFIRQHKDQWFKCDDAIITKASIKDVLDSEGYLLFYHKQFLEYE | binds
3 | TADA2B (protein, UniProt Q86TJ2 1-420) MAELGKKYCVYCLAEVSPLRFRCTECQDIELCPECFSAGAEIGHHRRYHGYQLVDGGRFTLWGPEAEGGWTSREEQLLLDAIEQFGFGNWEDMAAHVGASRTPQEVMEHYVSMYIHGNLGKACIPDTIPNRVTDHTCPSGGPLSPSLTTPLPPLDISVAEQQQLGYMPLRDDYEIEYDQDAETLISGLSVNYDDDDVEIELKRAHVDMYVRKLKERQRRKNIARDYNLVPAFLGKDKKEKEKALKRKITKEEKELRLKLRPLYQFMSCKEFDDLFENMHKEKMLRAKIRELQRYRRNGITKMEESAEYEAARHKREKRKENKNLAGSKRGKEDGKDSEFAAIENLPGFELLSDREKVLCSSLNLSPARYVTVKTIIIKDHLQKRQGIPSKSRLPSYLDKVLKKRILNFLTESGWISRDAS | binds
4 | ENY2 (protein, UniProt Q9NPA8 1-101) MVVSKMNKDAQMRAAINQKLIETGERERLKELLRAKLIECGWKDQLKAHCKEVIKEKGLEHVTVDDLVAEITPKGRALVPDSVKKELLQRIRTFLAQHASL | binds

The next lines start with the values.

Row | binding | Molecule
5 | binds | KAT2A (from UniProt Q92830 1-837)
6 | binds | TAF9B (from UniProt Q9HBM6 1-251)
7 | binds | TAF10 (from UniProt Q12962 1-218)
